Out of some 45,000 compounds screened, about 65 (0.1%) were called active. Calls follow the shape of the dose curve; as a rule, active = well fitted activation curve with a large enough effect; inconclusive = small, poorly fitted or top-dose-only effect; inactive = no such curve, though single readings can be large or run the other way. Some of the results follow.
These compounds were tested against Galactocerebrosidase (Homo sapiens) (UniProt P54803) (assay: A Novel Cell-Based Assay to Identify Small Molecules for B -Galactocerebrosidase). Conditions: 145M-Twi-hGALC-G270D cells (Twitcher mouse brain line with human GALC G270D), HMU-beta-Gal fluorescence, 48 h; series mostly up to 57.5 µM; activation: at the top concentration.
Chain of UniProt P54803 (P54803 whole entry, looked up): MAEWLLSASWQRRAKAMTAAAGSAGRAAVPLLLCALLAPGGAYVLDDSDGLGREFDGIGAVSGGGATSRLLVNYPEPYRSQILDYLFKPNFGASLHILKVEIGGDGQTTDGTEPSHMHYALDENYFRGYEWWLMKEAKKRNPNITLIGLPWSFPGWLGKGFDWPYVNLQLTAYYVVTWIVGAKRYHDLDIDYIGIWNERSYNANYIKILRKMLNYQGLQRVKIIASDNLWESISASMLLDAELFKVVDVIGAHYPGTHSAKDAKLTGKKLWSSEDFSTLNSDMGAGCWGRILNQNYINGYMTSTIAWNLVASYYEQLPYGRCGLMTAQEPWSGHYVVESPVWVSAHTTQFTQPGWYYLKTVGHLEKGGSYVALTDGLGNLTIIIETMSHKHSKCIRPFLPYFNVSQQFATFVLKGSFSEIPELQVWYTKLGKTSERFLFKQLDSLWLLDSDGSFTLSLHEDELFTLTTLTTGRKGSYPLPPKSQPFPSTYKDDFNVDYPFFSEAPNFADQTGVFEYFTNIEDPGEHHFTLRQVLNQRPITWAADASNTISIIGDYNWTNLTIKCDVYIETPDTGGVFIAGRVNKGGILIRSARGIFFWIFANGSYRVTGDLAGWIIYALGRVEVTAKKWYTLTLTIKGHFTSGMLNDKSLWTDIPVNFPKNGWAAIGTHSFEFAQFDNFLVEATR
Outline: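 Fluorogenic HMU-b-Gal hydrolysis (0.1 mM final, pH 5.2 citrate-phosphate with 1 mg/mL sodium taurocholate; carbonate stop buffer) measures mutant GALC activity after compound treatment of live 145M-Twi Twitcher brain cells stably carrying human GALC-G270D, with wild-type GALC line alongside; activation sought.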
Also: 0% is about no effect; nearly all actives have a fitted effect of over 65% in size.

activation, inactive:
Cc1ccc(Cl)cc1NC(=O)CCCN1C(=O)CCn2nc(-c3cn(C)c4ccccc34)cc21 -10.3%, CCOc1ccc(CCNC(=O)CCn2c(=O)c3cccn3c3cccnc32)cc1 2.52%, O=c1cc[nH]c(=O)[nH]1 -2.06%, Cc1ccccc1Cn1c(CN2CCN(c3cc(Cl)ccc3C)CC2)nc2c1c(=O)[nH]c(=O)n2C -3.38%, COc1ccccc1C(=O)Nc1cc(-c2ccc(C)cc2)no1 -21.6%, O=C(O)c1ccc(N2C(=O)c3[nH]nc(-c4ccccc4)c3C2c2cccc(F)c2)cc1 (configuration not stated) -9.17%, CCC(=O)Nc1ccccc1-c1nc2ccccc2n(C(C)C(=O)Nc2ccc(OC)cc2)c1=O (configuration not stated) 1.27%, CN(c1ccccc1)c1ncnc2c1cnn2C -5.22%, COc1ccc(C)cc1S(=O)(=O)NCC(c1ccc(N(C)C)cc1)N1CCc2ccccc21 (configuration not stated) 0.964%, COc1ccc(N2CCN(C(=O)c3cc4cc5ccc(Cl)cc5nc4o3)CC2)cc1 -11.4%, Cc1ccc(NC(=O)Cn2c(=O)oc3cc(S(=O)(=O)N4CCC(C)CC4)ccc32)cc1Cl -11.3%, COc1cccc(C2C(=O)N(C3CCCCC3)CC(=O)N2Cc2ccc(Cl)cc2)c1 (configuration not stated) -12.7%, Cc1cc(NC(=O)N2CCC(CN3CCOCC3)CC2)ccc1Br 5.63%, CCNc1nc(Oc2ccc(=O)n(-c3ccccc3)n2)nc(N(C)C)n1 -4.86%, CCc1ccc(C2C(C(=O)Nc3ccc(Cl)cc3)=C(C)Nc3ncnn32)cc1 (configuration not stated) 1.23%, Cc1ccc2c(c1)C(=O)OC(C(=O)Nc1ncc(Cc3ccccc3)s1)C2 (configuration not stated) -14.2%, Cc1ccc(C2c3[nH]c4ccccc4c3CCN2C(=O)Nc2ccc(C)c(C)c2)cc1 (configuration not stated) -29.6%, CCOc1ccccc1C(=O)NCc1ccc2c(c1)CCN2C(C)=O -19.5%, COc1ccc(C2(CNC(=O)C(=O)Nc3cccc(C(F)(F)F)c3)CCCC2)cc1OC -14.1%, Cc1ccc(S(=O)(=O)Nc2cccc(-c3ccc(N4CCCCC4)nn3)c2)s1 -8.02%, CCOC(=O)C(C)Sc1nnc2ccc3ccccc3n12 (configuration not stated) -2.42%, Cc1ccc(NC(=O)C(=O)NCc2ccc(Cl)cc2)cc1 -13.2%, O=C(NCCc1ccc(Cl)cc1)c1ccc(CSCc2ccccc2Cl)o1 -16.4%, CC(=O)c1cccc(NC(=O)c2nc(-c3ccc(C)cc3)n3c2CCCCC3)c1 -5.24%, Cc1cccc(NC(=O)C2CCCN(S(=O)(=O)c3cccc4nonc34)C2)c1 (configuration not stated) -9.97%, CCOc1ccc(NC(=O)N(Cc2c[nH]c3ccccc23)C2CCCCC2)cc1 1.87%, Nc1cc(=O)nc(SCC(=O)Nc2ccc(F)cc2)n1-c1ccc(Cl)cc1 -4.51%, Cc1oc(-c2cccc(Cl)c2)nc1CN1CCC(C(=O)NCCCN2CCN(c3cccc(Cl)c3)CC2)CC1 -10.7%, COc1cc(OC)c(NC(=O)CCn2cnc3onc(-c4ccc(F)cc4)c3c2=O)cc1Cl 2.96%, CCCCNC(=O)c1[nH]c2ccccc2c1Sc1ccc(C)cc1 -5.54%, CCC[C@@H]1C[C@@H](C(=O)N[C@@H]([C@H]2O[C@H](SC)[C@H](O)[C@@H](O)[C@H]2O)[C@@H](C)O)N(C)C1 -18%, Cc1ccc(CNCc2c(C(=O)O)n(Cc3ccccc3C)c3cc(C)ccc23)cc1 -24.4%, Cc1ccc(C)c(S(=O)(=O)c2cnc(SCC(=O)Nc3ccc(F)cc3F)[nH]c2=O)c1 -10.3%, CCc1ccc(NC(=O)CSc2nccn2C2CCCC2)cc1 -20.4%, Cc1oc(-c2ccc(C(=O)NCc3ccc(N(C)C)cc3)cc2)nc1COc1ccccc1 -14.7%, CC(NC(=O)CN(C)S(=O)(=O)c1ccc2c(c1)c(=O)n(C)c(=O)n2C)c1ccccc1 (configuration not stated) 0.548%, Cc1cc2c(=O)c(C(=O)c3ccncc3)cn(CC(=O)Nc3cccc(C)c3C)c2cc1C -18.8%, Cc1ccc2c(c1)c(=O)c(C(=O)c1ccncc1)cn2CC(=O)Nc1c(C)cccc1C -19.8%, Cc1cc(=O)n(CC(=O)NCCC(C)C)c2c1c(C)nn2C -0.222%, Cn1cc(S(=O)(=O)N2CCCCC2)cc1C(=O)N1CCN(c2ccc(F)cc2)CC1 -6.63%, CCn1cc(C(=O)OCC(=O)Nc2cc(Cl)ccc2OC)c(=O)c2ccc(C)nc21 -12.1%, COc1ccc(Br)cc1C1CC(=O)Nc2c1c(C)nn2-c1nc(C)cc(C)n1 (configuration not stated) -12.1%, Cc1ccc2nc(N(Cc3cccnc3)C(=O)C3CCCCC3)sc2c1 -14.4%, Cc1cccc(NC(=O)Cn2c(=O)oc3cc(S(=O)(=O)NCc4ccccc4)ccc32)c1 -34.5%, Cc1ccc(C)c(-c2csc(-c3c(N)c(C(=O)c4ccc5c(c4)OCO5)n4ccccc34)n2)c1 -13.5%, CCN(CC)CCNC(=O)C1CCCN(c2ncnc3onc(C)c23)C1 (configuration not stated) -17.4%, Cc1c(C(N)=O)nnn1-c1ccc(Br)cc1 -13.6%, COc1ccc(CCNC(=O)Cn2ncc3c(C)n(Cc4ccccc4F)c(C)c3c2=O)cc1OC -9.58%, CCOC(=O)c1c(S(=O)(=O)N2CCCC(C(=O)N3CCN(c4ccc(F)cc4)CC3)C2)c(C)n(C)c1C (configuration not stated) -21.3%, COc1ccc(CCNC(=O)Cn2nc(C)n3c(cc4occc43)c2=O)cc1OC 3.58%, COc1ccc(Br)cc1CNC(=O)C(C)n1nc(C)n2c(cc3occc32)c1=O (configuration not stated) -0.907%, CCSc1nc2n(n1)C(c1ccc(CC)cc1)C(C(=O)Nc1ccccc1OC)=C(C)N2 (configuration not stated) -2.26%, CCC(C(=O)N1CCN(c2cc(Cl)ccc2C)CC1)n1nc(C)n2c(cc3occc32)c1=O (configuration not stated) -30.2%, Cc1c(Cl)cccc1-n1c(CCC(=O)O)ccc1-c1cccs1 -12.8%, CCc1cccc(NC(=O)CN2C(=O)CCc3cc(S(=O)(=O)N4CCOCC4)ccc32)c1 2.08%, CCc1ccc2nc(N3CCC(C(=O)O)CC3)sc2c1 -18.8%, COc1cc(CNCc2c(C(=O)O)c(C)n(Cc3cccc(Cl)c3)c2C)cc(OC)c1OC 1.44%, Cc1ccc(CN2CCSc3ccc(C(=O)Nc4ccc(F)cc4F)cc32)cc1 -19.1%, COc1ccc(N2CCN(C(=O)c3cc4c(=O)n(Cc5ccccc5)ccc4nc3C)CC2)cc1 -7%, Cc1ccc2oc(C(=O)Nc3nnc(CC(C)C)s3)cc(=O)c2c1 -20.8%, CCN(CC)c1cc(C)nc2nc(-c3ccc(C)cc3)nn12 -9.83%, COc1ccc(-c2cc(C(F)(F)F)nc(SCC(=O)NCc3ccc(OC)c(OC)c3)n2)cc1 -8.6%, CCc1nnc2c(Nc3cccc(C(C)=O)c3)nc3ccccc3n12 -15.6%, COc1ccccc1N(CC(=O)NCCSCc1ccccc1)S(C)(=O)=O -14.1%, CCCCc1nn2c(=O)cc(COC(=O)c3cccc(OC)c3)nc2s1 0.0817%, CCCCc1nn2c(=O)cc(COC(=O)COc3ccc(C)cc3)nc2s1 -22%, COc1ccc(C)cc1NC(=O)CN(c1ccccc1)S(=O)(=O)N(C)C -2.86%, CCOC(=O)CN1C(=O)c2ccccc2Sc2ncccc21 -4.15%, COc1ccc(NC(=O)CN2C(=O)COc3ccc(S(=O)(=O)Nc4ccccc4)cc32)cc1 -9.85%, CCOc1ccc(C(=O)NCc2ccc3c(c2)CCN3C(=O)c2ccccc2)cc1 -6.27%, COc1cccc(C(=O)Nc2cccc(OCc3cc(=O)n4cc(C)ccc4n3)c2)c1 -5.62%, CCc1ccc(CNC(=O)c2ccc3c(c2)nc2n3CCC(C)C2)cc1 (configuration not stated) 6.06%, COc1ccc(-c2onc(C)c2C)cc1S(=O)(=O)NCc1ccco1 -10.4%, O=C(Nc1ccc(F)cc1Cl)n1ncc2cc(Cl)ccc21 -19.7%, CCC(=O)N1CCc2cc(S(=O)(=O)NC(CC(C)C)C(=O)Nc3cc(C)ccc3OC)ccc21 (configuration not stated) -11.2%, CCC12CN3CC(C)(CN(C1)C3c1c[nH]c3ccccc13)C2=O (configuration not stated) -9.47%, CCc1ccc(NC(=O)CSC2=Nc3ccccc3C3=NC(CCC(=O)NCCc4ccccc4)C(=O)N23)cc1 (configuration not stated) -16.1%, COc1ccc(/C=C\c2onc(C)c2S(=O)(=O)N2CCC(C(=O)Nc3ccc(C)cc3C)CC2)cc1 -13.3%, CC1=C(C(=O)Nc2ccc(C)cc2C)C(c2ccc(O)cc2)n2nnnc2N1 (configuration not stated) 13.1%, CCS(=O)(=O)c1ncc(N(Cc2ccco2)Cc2sccc2C)c(C(=O)Nc2ccc(C)cc2C)n1 -5.91%, CCCOc1ccc(C(=O)Nc2cccc(NC(=O)c3cccc(Cl)c3)c2)cc1 -16%, CC(C)c1ccc(-c2nnc3n(CCc4ccccc4)c(=O)c4ccccc4n23)cc1 -16.9%, Cc1ccc(CNC(=O)CCc2c(C)nc3nc(CNC(=O)OC(C)(C)C)nn3c2C)cc1 -12.8%, O=C(COc1ccccc1-c1nnc(-c2ccccc2)o1)Nc1ccc(Br)cc1F 16.8%, CC(=O)c1cccc(Nc2ccc3cc(S(=O)(=O)N4CCC(C)CC4)ccc3n2)c1 0.92%, CCC(=O)N1CCc2cc(S(=O)(=O)NCCC(=O)Nc3ccc(C)cc3)ccc21 -22.1%, CC(=O)c1ccc(NS(=O)(=O)c2cc(-c3cc(C)no3)ccc2C)cc1 -13.3%, CCCNC(=O)CCNS(=O)(=O)c1ccc2c(c1)c(=O)n(C)c(=O)n2C -13.1%, COc1cc(C(=O)n2nc(-c3ccco3)nc2NCc2ccc(Cl)cc2)cc(OC)c1OC -9.73%, Cc1cccc(NCc2nc3ccccc3n2CCOc2ccccc2C)c1 -11.2%, COc1ccccc1OCC(=O)Nc1nc2c(s1)CC(C)CC2 (configuration not stated) -1.02%, Cc1ccc2nc(-c3ccc(Cl)cc3)cc(C(=O)OCC(=O)c3ccccc3)c2c1 -13%, CCSc1ncc(Cl)c(C(=O)Nc2c(C(=O)Nc3cccc(C)c3)oc3ccccc23)n1 -2.3%, Cc1cccc(-c2nc(CSc3nncn4c3cc3oc(C)cc34)c(C)o2)c1 -10.6%, COc1ccc(C(=O)NCC(c2ccc(N(C)C)cc2)N2CCCC2)c(OC)c1 (configuration not stated) -15.4%, CCC(Cn1nnc2ccccc2c1=O)NC(=O)Nc1ccc(C)cc1C (configuration not stated) 8.77%, COc1ccc(C(=O)NCCc2sc(-c3ccc(F)cc3)nc2C)cc1OC -5.31%
